Test results taken from the supplement of paper PMC12217912.
This is one part of the list. Sequences were assembled here from the parent chain. Inactive controls read about 0.05.

B1: TEV protease; numbered along this chain (parent)
chain: MGESLFKGPRDYNPISSSICHLTNESDGHTTSLYGIGFGPFIITNKHLFRRNNGTLVVQSLHGVFKVKDTTTLQQHLVDGRDMIIIRMPKDFPPFPQKLKFREPQREERICLVTTNFQTKSMSSMVSDTSCTFPSGDGIFWKHWIQTKDGQCGSPLVSTRDGFIVGIHSASNFTNTNNYFTSVPKNFMELLTNQEAQQWVSGWRLNADSVLWGGHKVFMVKPEEPFQPVKEATQL

Variants of: B1
Experiment: raw area under fraction-flipped curve 0-4 h after induction (AUC4h, not background-subtracted), DNA-recorder readout of cleavage of the substrate (dimensionless); higher = more cleavage of the substrate by the protease variant
Details: temperature: 34 °C; time window: 0-4 h after rhamnose induction
Method: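 In vivo DNA recorder in E. coli TOP10(DE3) ΔrhaA at 34 °C. Each TEVp single-site mutant (parent TEVp 0) is paired with a single-site variant of the 7-mer TEVs (canonical ENLYFQ|S). The substrate sits between flexible linkers in a Bxb1-sfGFP-TEVs-SsrA fusion, so cleavage stabilises Bxb1 and speeds flipping of a recombination array, read by NGS. The value is the raw area under the fraction-flipped curve over 0-4 h after rhamnose induction (AUC4h), with ≥20 reads per time point. It is not background-subtracted; inactive controls average about 0.047.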
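Also: Bxb1 expression induced with 0.2% (w/v) L-rhamnose at OD600 near 0.5, cultures sampled hourly, flipped fraction per protease–substrate barcode pair counted by paired-end Illumina sequencing.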

| Variant | area with substrate ENAYFQS | area with substrate ENCYFQS | area with substrate ENDYFQS | area with substrate ENEYFQS | area with substrate ENFYFQS | area with substrate ENGYFQS | area with substrate ENHYFQS | area with substrate ENIYFQS | area with substrate ENMYFQS | area with substrate ENNYFQS | area with substrate ENPYFQS | area with substrate ENQYFQS | area with substrate ENRYFQS | area with substrate ENSYFQS | area with substrate ENVYFQS | area with substrate ENWYFQS | area with substrate ENKYFQS | area with substrate ENTYFQS | area with substrate ENYYFQS |
| --- | --- | --- | --- | --- | --- | --- | --- | --- | --- | --- | --- | --- | --- | --- | --- | --- | --- | --- | --- |
| G39S | 0.0501 | 0.0249 | 0.0421 | 0.0424 | 0.0535 | 0.0512 | 0.0425 | 0.0441 | 0.0353 | 0.0526 | 0.0407 | 0.0417 | 0.0462 | 0.0451 | 0.0436 | 0.014 |  |  |  |
| G39V | 0.0315 | 0.0361 | 0.0439 | 0.0434 | 0.0468 | 0.0423 | 0.0468 |  | 0.0478 | 0.0461 | 0.0386 | 0.0364 | 0.0448 | 0.0414 | 0.0365 | 0.0373 | 0.0403 | 0.0411 | 0.0487 |
| G39K | 0.0357 | 0.0317 | 0.0265 | 0.0552 | 0.0465 | 0.014 | 0.0541 | 0.0447 | 0.0485 |  |  | 0.0535 | 0.0323 | 0.0407 |  |  | 0.0582 | 0.0425 |  |
| G39D | 0.0441 | 0.0416 | 0.0345 | 0.0398 | 0.0325 | 0.0266 | 0.0354 |  |  | 0.0359 |  | 0.0501 |  | 0.0482 | 0.0242 |  | 0.0456 | 0.0445 | 0.0192 |
| L22A | 0.0546 | 0.0547 | 0.0666 | 0.0412 | 0.0513 | 0.0691 | 0.0526 | 0.0734 | 0.0631 | 0.0544 | 0.0561 | 0.0525 | 0.0642 | 0.0588 | 0.0532 | 0.0091 | 0.0632 | 0.0646 |  |
| I42W | 0.0512 | 0.0587 | 0.0536 | 0.0608 | 0.0535 | 0.0544 | 0.042 | 0.0696 |  | 0.054 | 0.0377 | 0.0414 | 0.0426 | 0.0535 | 0.0685 |  | 0.0466 | 0.0431 | 0.0477 |
| I42G | 0.0497 | 0.0487 | 0.0514 | 0.0534 | 0.0346 | 0.105 | 0.0391 | 0.0327 | 0.044 | 0.0493 | 0.0518 |  |  | 0.0438 | 0.0493 |  |  | 0.0826 | 0.0475 |
| P40A | 0.042 | 0.0634 | 0.0563 | 0.0568 |  | 0.0727 | 0.0566 | 0.131 |  | 0.0597 |  |  | 0.071 | 0.0632 | 0.0674 | 0.0586 | 0.0384 | 0.0619 |  |
| N52Y | 0.0554 |  | 0.0692 | 0.0579 | 0.0665 | 0.0619 |  | 0.075 | 0.0818 | 0.0613 | 0.0562 | 0.0622 | 0.0577 | 0.0806 | 0.0629 | 0.0106 | 0.0624 | 0.0542 |  |
| N52F | 0.0584 | 0.0948 | 0.0705 | 0.0565 | 0.0302 |  | 0.0774 | 0.0436 | 0.0586 |  | 0.0559 | 0.0694 |  | 0.0643 | 0.0588 | 0.0128 | 0.0624 | 0.0586 | 0.0556 |
| N52T | 0.0313 | 0.058 | 0.0936 | 0.0345 | 0.067 | 0.0767 |  | 0.0954 |  | 0.0556 | 0.0652 | 0.0534 | 0.0592 | 0.0605 | 0.0624 |  | 0.0611 | 0.0572 |  |
| N52S | 0.0561 | 0.0482 | 0.0568 | 0.0587 |  |  | 0.0535 | 0.059 | 0.0649 | 0.0541 | 0.0553 | 0.0583 |  | 0.0612 | 0.0609 |  |  | 0.0563 | 0.0483 |
| S32N | 0.0642 | 0.0611 | 0.0674 | 0.0603 | 0.0512 | 0.0416 |  |  |  | 0.07 |  | 0.0664 | 0.0838 | 0.0583 | 0.0625 | 0.0588 | 0.0906 | 0.0576 |  |
| L33Q | 0.0517 | 0.0623 | 0.0649 | 0.0821 | 0.0698 | 0.0592 | 0.0645 | 0.0858 | 0.0581 | 0.0649 | 0.0363 | 0.0649 |  | 0.0571 | 0.065 |  | 0.062 | 0.0634 |  |
| L33V | 0.0339 | 0.0577 | 0.0674 | 0.0588 |  | 0.0615 |  | 0.102 |  | 0.0575 | 0.0579 |  | 0.0486 | 0.0629 | 0.0516 | 0.0877 |  |  | 0.0573 |
| L33F | 0.0604 | 0.0719 | 0.0614 | 0.0543 | 0.0575 | 0.0605 | 0.0539 | 0.0749 | 0.0687 | 0.0454 | 0.0708 | 0.0589 | 0.0477 | 0.067 | 0.0662 | 0.0515 | 0.068 | 0.0578 | 0.0557 |
| L48H | 0.0458 | 0.0592 | 0.057 |  | 0.051 |  |  |  |  | 0.0591 | 0.0557 | 0.0614 |  | 0.061 | 0.0631 |  |  | 0.0532 |  |
| Y34C | 0.0469 | 0.0616 | 0.0652 | 0.0581 | 0.0568 | 0.0685 | 0.0583 |  |  | 0.0565 | 0.0621 | 0.0575 | 0.0548 | 0.0568 | 0.0611 |  |  | 0.0543 |  |
| S26V | 0.0589 |  | 0.0632 | 0.0643 | 0.0715 |  |  |  | 0.069 | 0.0621 | 0.0737 | 0.0554 | 0.0382 | 0.0589 | 0.0684 |  |  |  |  |
| T55I | 0.0608 |  | 0.0656 | 0.0514 |  | 0.0708 | 0.0552 | 0.114 | 0.0693 |  | 0.0353 | 0.0593 | 0.0632 | 0.0657 | 0.0809 |  | 0.0588 |  |  |
| T55E | 0.0663 | 0.0475 | 0.0626 | 0.0528 | 0.0621 |  | 0.0112 |  | 0.0752 | 0.0525 | 0.0508 | 0.0566 | 0.0638 | 0.0679 | 0.0768 | 0.0514 | 0.0625 | 0.0537 |  |
| T23M | 0.0618 | 0.0653 | 0.0601 | 0.0656 | 0.0534 | 0.0558 | 0.0602 | 0.102 |  | 0.0454 | 0.0578 | 0.0661 | 0.0633 | 0.0666 | 0.0709 | 0.0798 | 0.0639 | 0.0672 | 0.0601 |
| F49H | 0.0481 |  | 0.0731 | 0.0661 | 0.0616 |  | 0.0602 | 0.0591 | 0.0568 | 0.051 |  | 0.051 |  | 0.0585 |  |  | 0.0668 | 0.0665 | 0.0488 |
